From PubChem BioAssay AID686979 (National Center for Advancing Translational Sciences (NCATS), 2013)
Where “and” joins values, the source holds several entries; their conditions need not be identical. Equal entries are not always repeated. Out of some 420,000 compounds screened, about 50,000 (12%) were called active. This list was built around the results that the source calls inconclusive (neither active nor inactive); the mix of calls is not that of the screen. The call rests on the fitted dose curve; in most records, active means well fitted inhibition curve with a large enough effect; inconclusive means small, poorly fitted or top-dose-only effect; inactive means flat fitted curve, though single readings scatter. Potencies of inconclusive entries are left out as doubtful fits.

Assay: qHTS for Inhibitors of human tyrosyl-DNA phosphodiesterase 1 (TDP1): qHTS in cells in presence of CPT; further: nearly all actives have a fitted effect of over 55% in size
Settings: chicken DT40 Tdp1-/-;hTDP1 cells + 20 nM CPT, ATP luminescence, 48 h; activity change, negative = growth inhibition: at 46.2 µM (top of the series) unless noted
Outline: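 Cell growth measured by CellTiter-Glo luminescence after a minimum 48 h, 37 C compound exposure with 20 nM CPT in Tdp1-knockout DT40 cells stably expressing hTDP1, seeded 400/well; qHTS titration format.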
On the % scale 0 is the no-effect control and ±100 the full control effect; potency means the concentration at half of the fitted maximal effect; tags describe the fitted curve by direction and shape.

| Compound | activity change, negative = growth inhibition | Potency |
| --- | --- | --- |
| Cc1ccc(C(=O)C2CC2)cc1C | inactive: -4.73% | – |
| CCc1noc(C)c1C(=O)OCC(=O)NCc1ccccc1 | inactive: -13% | – |
| COc1ccc(OC)c(C2=C/C(=C/c3ccccn3)C(=O)O2)c1 | inactive: -5.25% | – |
| CCCn1cc(C(=O)N(C)C2CCCN(Cc3ccccc3F)C2)c(C)n1 (stereo not given) | inactive: 11.8% | – |
| CN1CCN(c2ccc(-c3ccnn3C(=O)Nc3ccccc3)cc2)CC1 | inactive: -13.1% | – |
| S=C(NCCc1ccccc1)N1CCCCC1 | inactive: -3.98% | – |
| Cc1ccccc1C1c2[nH]c3ccccc3c2CCN1CCCn1cccn1 (stereo not given) | – | inconclusive [inhibitor, single point] |
| CCOCCCNC(=O)CNC(=S)N(Cc1ccc(C)cc1)Cc1ccco1 | – | inconclusive [inhibitor, single point] |
| O=C(Nc1ccn(CCCN2CCN(c3ncccn3)CC2)c(=O)n1)OCc1ccccc1 | – | inconclusive [inhibitor, single point] |
| Fc1ccc(C2N(c3ccccc3)C(=S)N3CCCN23)cc1 (stereo not given) | – | inconclusive [inhibitor, single point] |
| Cc1c(Cc2ccccc2)c(=O)oc2cc(OC(=O)c3ccccc3)ccc12 | – | inconclusive [inhibitor, partial curve, poor fit] |
| CC(C)(C)c1ccc(C(=O)C[n+]2ccc(Cl)c3ccc(Cl)cc32)cc1 | – | active: 0.891 µM |
| O=C(Nc1ccc(F)cc1)C1CCN(c2nc3ccccc3nc2C(F)(F)F)CC1 | – | inconclusive [inhibitor, partial curve] |
| COC(=O)c1sc(N)c(C(=O)OC)c1Cn1ncc(Cl)c(Cl)c1=O | – | active: 23.1 µM |
| CCOc1cc(C2C3=C(CCCC3=O)Nc3ccc4ncccc4c32)ccc1O (stereo not given) | – | inconclusive [inhibitor, single point] |
| CN(C)CCNc1cccc2sc3ccc(O)cc3c(=O)c12 | – | active: 0.184 µM |
| Cn1c(Sc2ccc(Cl)cc2)c(C=O)c2ccccc21 | – | inconclusive [inhibitor, single point] |
| Cc1cccc(C2c3[nH]c4ccccc4c3CCN2C(=O)CN2CCOC2=O)n1 (stereo not given) | inactive: -5.12% | – |
| Cc1cc(-c2ccc(S(=O)(=O)Nc3ccccc3C)cc2)on1 | – | active: 5.17 µM |
| CS(=O)(=O)Oc1ccc2c(c1)O/C(=C\c1cccc([N+](=O)[O-])c1)C2=O | inactive: -3.91% | – |
| CC(C)(Cc1ccc(O)cc1)NC(=O)CC(=O)N/N=C/c1ccc(Cl)cc1 | – | inconclusive [inhibitor, single point] |
| Cc1ccc(/C(=C/CN2CCCC2)c2ccccn2)cc1 | – | inconclusive [inhibitor, single point] |
| O=C(CSc1ccc(-c2ccco2)nn1)c1ccc(F)cc1 | inactive: -29.3% | – |
| CCCNc1nc(Nc2ccc([N+](=O)[O-])cc2)nc(N2CCOCC2)n1 | – | active: 12.6 µM |
| COc1ccc(CNC(=O)COC(=O)c2cc(C)nc3ccccc23)cc1 | – | inconclusive [inhibitor, single point] |

| Compound | activity change, negative = growth inhibition | Potency |
| --- | --- | --- |
| Cc1ccc(C(=O)Nc2ccc(N3CCOCC3)c3nonc23)cc1[N+](=O)[O-] | – | inconclusive [inhibitor, single point] |
| Cc1nn(CC(=O)NCCCN2CCC(Cc3ccccc3)CC2)c(=O)c2cc(-c3ccccc3)nn12 | – | active: 18.4 µM |
| O=C(/C=C/Nc1ccccc1)c1cnc(-c2ccccc2)s1 | – | inconclusive [inhibitor, single point] |
| COc1ccc(-c2cc(C)no2)cc1S(=O)(=O)NCC1CCN(Cc2cc(C)ccc2C)CC1 | – | inconclusive [inhibitor, single point] |
| CCOC(=O)C1(Cc2cccc(OC)c2)CCN(Cc2cnc(N)nc2)CC1 | inactive: 10.3% | – |
| CC(=O)Nc1cccc(CNCc2cccc(NC(C)=O)c2)c1 | inactive: -5.37% | – |
| O=C(O)c1cccc(NS(=O)(=O)c2cccc3nsnc23)c1 | inactive: -34.7% | – |
| N/C(=N\OS(=O)(=O)c1ccc(Cl)cc1)c1ccccn1 | – | inconclusive [inhibitor, single point] |
| O=C(CSc1ccccc1)Nc1ccc(S(=O)(=O)NCC2CCCO2)cc1 (stereo not given) | inactive: -12.4% | – |
| COc1ccc(-c2cc3c(=O)n(CC(=O)NCCCN4CCC(N5CCCCC5)CC4)nc(C)n3n2)cc1 | – | inconclusive [inhibitor, single point] |
| CCOc1ccc(CNC(=O)Cn2nc(C)c3nn(-c4ccc(Cl)cc4)c(C)c3c2=O)cc1 | inactive: -7.64% | – |
| COc1ccc(N2CCN(C(=O)C(C)(C)Oc3ccc(Cl)cc3)CC2)cc1 | – | inconclusive [inhibitor, single point] |
| CC1=C(C(=O)OC2CCCCC2)C(c2cccnc2)n2nnnc2N1 (stereo not given) | – | active: 8.2 µM |
| CC1CCCN(CC(=O)Nc2cc(Cl)ccc2Oc2ccccc2)C1 (stereo not given) | – | active: 25.9 µM |
| Cc1ccc2nc(-c3ccccc3)c(CN3CCOCC3)n2c1 | inactive: -4.91% | – |
| COc1cc(-c2ccno2)ccc1S(=O)(=O)N1CCN(c2cccc(Cl)c2)CC1 | – | active: 23.1 µM |
| CCc1n[nH]c2c1/C(=N\O)CC(c1ccccc1)C2 (stereo not given) | – | inconclusive [inhibitor, single point] |
| CC(Nc1nc(-c2ccccc2O)nc2ccccc12)c1ccccc1 (stereo not given) | – | inconclusive [inhibitor, single point] |
| Cc1ccc(S(=O)(=O)N(C)c2ccc(C(=O)N3CCC(C(N)=O)CC3)cc2)cc1 | inactive: -12.9% | – |
| O=C(CSc1nnnn1-c1ccc(O)cc1)c1cc2ccccc2o1 | – | active: 13 µM |
| Cc1cccc(C(=O)NC(=S)N2CCN(c3ccc([N+](=O)[O-])cc3)CC2)c1 | – | inconclusive [inhibitor, single point] |
| COc1ccc(S(=O)(=O)N2CCCCC2)cc1NC(=O)c1c(F)cccc1Cl | – | inconclusive [inhibitor, single point] |
| COc1ccc(CNC(=O)Nc2ccc3c(c2)N(C)C(=O)CS3)cc1 | – | inconclusive [inhibitor, single point] |
| CC(=O)c1ccc(Oc2nc(-c3cccnc3)nc3ccccc23)cc1 | – | inconclusive [inhibitor, partial curve] |
| O=C(Cc1ccc2c(c1)OCO2)NN=Cc1ccc([N+](=O)[O-])o1 | – | inconclusive [inhibitor, partial curve, poor fit] |

| Compound | activity change, negative = growth inhibition | Potency |
| --- | --- | --- |
| CCCc1c(C(=O)N/N=C/c2ccco2)nnn1-c1nonc1N | inactive: 3.05% | – |
| O=C(c1ccncc1)N1CCC2(CC1)CN(c1ccc(-c3ccccc3)cc1)C2 | – | inconclusive [inhibitor, single point] |
| COc1ccc2cc3cc(C(=O)NCc4cccs4)oc3nc2c1 | inactive: -24% | – |
| Cc1[nH]c2ccccc2c1/C=N/n1cnnc1 | inactive: -5.01% | – |
| COc1ccccc1NC(=O)c1cc(N)cc(C(=O)Nc2ccccc2OC)c1 | – | active: 23.1 µM |
| Cc1cccc(C)c1NC(=O)COC(=O)c1c2c(nc3ccccc13)/C(=C\c1ccc3c(c1)OCO3)CCC2 | – | inconclusive [inhibitor, single point] |
| CC1=CC(=O)C(C(C)C)=C/C1=N\OC(=O)c1cccc2nc(C)oc12 | – | inconclusive [inhibitor, single point] |
| Cc1ccccc1NC(=O)c1sc(NC(=O)COc2ccccc2)c(C#N)c1C | – | inconclusive [inhibitor, single point] |
| COc1cc(CNCc2ccccn2)ccc1OCc1ccc(Cl)c(Cl)c1 | – | inconclusive [inhibitor, single point] |
| Cc1nonc1NC(=O)c1oc2ccccc2c1C | inactive: -11% | – |
| c1ccc(Oc2nc3ccccc3n3cccc23)cc1 | inactive: -8.63% | – |
| Cc1nc(-c2cccc(NC(=O)c3cccc(S(=O)(=O)N4CCCC4)c3)c2)cs1 | – | inconclusive [inhibitor, single point] |
| Cc1ccc(S(=O)(=O)N2CCCCC2CCNC(=O)C(=O)NCc2ccccc2)cc1 (stereo not given) | – | active: 3.26 µM |
| CC12CCC(=O)N1C(C(=O)Nc1ccc(SC(F)F)cc1)CS2 (stereo not given) | – | inconclusive [inhibitor, single point] |
| Cc1cc(Cl)ccc1OCCCC(=O)NO | – | active: 8.91 µM and active: 8.2 µM |
| CCc1ccc(NC(=O)CC2C(=O)N(c3cccc(C)c3)C(=O)N2Cc2cccc(OC)c2)cc1 (stereo not given) | – | inconclusive [inhibitor, single point] |
| CC(=O)c1cccc(NC(=O)CSCc2ccc(Br)cc2)c1 | inconclusive: -32.6% [inhibitor] | – |
| COc1ccc(/C=C/C(=O)NCC2Cc3cccc(-c4nc(C)cnc4C)c3O2)cc1OC (stereo not given) | inactive: 8.75% | – |
| Cc1ccc(NC(=O)COc2cccc3ccc(C)nc23)c(Br)c1 | – | inconclusive [inhibitor, single point] |
| CCOC(=O)c1c(C)[nH]c(C)c1S(=O)(=O)Nc1ccc(CN2CCCCC2)cc1 | inactive: 0.44% | – |
| C[C@H](CO)N1C[C@H](C)[C@@H](CN(C)C(=O)Nc2ccccc2)Oc2ccc(NC(=O)Nc3ccc(C(F)(F)F)cc3)cc2C1=O | – | inconclusive [inhibitor, single point] |
| COc1ccc(Nc2nc(N3CCCC3)c3ccccc3n2)cc1 | – | active: 2.59 µM |
| CCc1nc2ccc(C(=O)NCCOc3ccc(OC)cc3)cn2c1N(CC)Cc1ccc(OC)c(OC)c1 | – | active: 20.6 µM |
| CCOc1cc(/C=C2\SC(=O)N(CC(=O)Nc3ccccc3F)C2=O)cc([N+](=O)[O-])c1O | – | active: 8.2 µM |
| Cc1cc(Br)ccc1NC(=O)CSCc1c(C)noc1C | – | inconclusive [inhibitor, partial curve] |
